{"source": "PubChem BioAssay AID504332", "about": "(National Center for Advancing Translational Sciences (NCATS), 2011)", "note": "Several values for one entry are separate records, joined by “and”; a condition that tells them apart may be missing. Equal values may be shown once. About 31,000 (8.9%) of roughly 350,000 compounds were called active. The inconclusive results got no clear call from the source; some entries with a clear call stand among them for comparison. Calls follow the shape of the dose curve; as a rule, active = well fitted inhibition curve with a large enough effect; inconclusive = small, poorly fitted or top-dose-only effect; inactive = no such curve, though single readings can be large or run the other way. Where the call is inconclusive, the potency comes from a doubtful curve fit. % is scaled to controls: 0 for no effect and ±100 for the full control effect; potency is read from the fitted curve at half-maximal effect; tags tell the direction and shape of the fitted curve.", "data": [{"biological_target": "Histone-lysine N-methyltransferase EHMT2 (Homo sapiens) (UniProt Q96KQ7)", "sequence (Q96KQ7 whole entry, looked up)": "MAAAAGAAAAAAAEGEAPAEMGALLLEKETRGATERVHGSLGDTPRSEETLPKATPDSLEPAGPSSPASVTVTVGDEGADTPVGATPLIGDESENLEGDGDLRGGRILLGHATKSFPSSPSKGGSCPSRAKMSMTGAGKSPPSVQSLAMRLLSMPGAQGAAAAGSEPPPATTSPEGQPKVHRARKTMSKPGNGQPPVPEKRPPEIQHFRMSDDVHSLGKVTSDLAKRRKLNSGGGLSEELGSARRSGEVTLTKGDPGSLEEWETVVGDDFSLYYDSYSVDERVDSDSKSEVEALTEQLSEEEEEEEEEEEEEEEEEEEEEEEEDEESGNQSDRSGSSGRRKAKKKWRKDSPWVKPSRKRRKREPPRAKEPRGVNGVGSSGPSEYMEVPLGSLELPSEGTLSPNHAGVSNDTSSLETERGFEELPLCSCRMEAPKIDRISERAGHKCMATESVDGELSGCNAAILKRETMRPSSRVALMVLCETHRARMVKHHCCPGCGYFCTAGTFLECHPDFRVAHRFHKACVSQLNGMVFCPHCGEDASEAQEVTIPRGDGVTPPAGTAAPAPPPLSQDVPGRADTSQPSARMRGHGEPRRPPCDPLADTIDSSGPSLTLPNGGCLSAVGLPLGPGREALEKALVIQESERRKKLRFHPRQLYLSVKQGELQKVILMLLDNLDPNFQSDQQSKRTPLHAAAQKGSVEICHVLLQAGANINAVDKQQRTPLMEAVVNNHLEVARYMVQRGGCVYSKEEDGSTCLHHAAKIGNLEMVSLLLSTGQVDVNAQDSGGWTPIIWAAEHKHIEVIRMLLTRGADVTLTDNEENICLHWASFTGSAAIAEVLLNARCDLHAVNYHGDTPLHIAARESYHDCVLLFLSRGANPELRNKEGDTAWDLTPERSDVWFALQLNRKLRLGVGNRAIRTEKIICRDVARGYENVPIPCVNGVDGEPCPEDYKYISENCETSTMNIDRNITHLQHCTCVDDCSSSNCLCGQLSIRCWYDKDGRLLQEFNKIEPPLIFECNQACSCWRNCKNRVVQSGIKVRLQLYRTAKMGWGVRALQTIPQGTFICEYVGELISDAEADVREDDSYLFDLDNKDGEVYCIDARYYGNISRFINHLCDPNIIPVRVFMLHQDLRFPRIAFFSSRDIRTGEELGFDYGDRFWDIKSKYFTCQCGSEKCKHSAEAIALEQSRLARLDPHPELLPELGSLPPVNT", "assay": "qHTS Assay for Inhibitors of Histone Lysine Methyltransferase G9a; also: nearly all actives have a fitted effect of over 75% in size", "conditions": "G9a H3K9 monomethylation, AlphaScreen, 2 h; activity, negative = inhibition: at 59 µM (top of the series) unless noted", "in_short": "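Quantitative HTS format: methyltransferase activity on a biotin-tagged H3K9 peptide is measured by AlphaScreen, using a rabbit anti-monomethyl-H3K9 antibody with streptavidin donor and anti-IgG acceptor beads. Final levels are 20 nM enzyme, 500 nM peptide, 20 uM SAM; 2 h RT.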", "values": [{"smiles": "CCc1nnc(NC(=O)CN2CCN(c3ccccc3OC)CC2)s1", "Potency": "inconclusive: 8.91 µM [inhibitor, full curve, poor fit]"}, {"smiles": "COC(=O)C1CCN(C(=O)COC(=O)c2ccc3[nH]c4c(c3c2)CCCC4)CC1", "Potency": "active: 50.1 µM"}, {"smiles": "Cc1cccc(-n2c(Cn3nc(C)c([N+](=O)[O-])c3C)n[nH]c2=S)c1", "Potency": "inconclusive: 6.31 µM [inhibitor, single point]"}, {"smiles": "CCC(C)(C)NC(=O)c1ccc2c(c1)N(CC(=O)N1CCCC1)C(=O)C(C)(C)O2", "activity, negative = inhibition": "inactive: -1.79% [at 0.501 µM]"}, {"smiles": "Cc1c(NC(=O)CSC(=S)N2CCCC2)c(=O)n(-c2ccccc2)n1C", "Potency": "inconclusive: 89.1 µM [inhibitor, single point]"}, {"smiles": "CCN(CCNC(=O)C1CCN(S(=O)(=O)CC)CC1)c1ccccc1", "activity, negative = inhibition": "inconclusive: -78.6% [inhibitor]"}, {"smiles": "COc1ccccc1N=C1SCC(=O)N1c1ccccc1OC", "Potency": "active: 28.2 µM"}, {"smiles": "COc1ccc(OC)c(S(=O)(=O)NCC(c2cccs2)N2CCc3ccccc3C2)c1", "note": "(stereo not given)", "activity, negative = inhibition": "inactive: 7.67% [at 2.33 µM]"}, {"smiles": "CCOC(=O)C1=C2NC(=O)c3ccccc3N2C(=O)C1", "Potency": "active: 7.94 µM"}, {"smiles": "CCOC(=O)N1CCN(C(=S)Nc2ccc3nc(N4CCN(CC)CC4)cc(C)c3c2)CC1", "Potency": "inconclusive: 15.8 µM [inhibitor, single point]"}, {"smiles": "O=C(Cc1c(Cl)cccc1Cl)N/N=C/c1cccnc1", "Potency": "inconclusive: 89.1 µM [inhibitor, single point]"}, {"smiles": "COCCn1c(-c2ccccc2)nc2ccccc21", "Potency": "inactive"}, {"smiles": "CC(C)n1c(-c2ccc(C(C)(C)C)cc2)n[nH]c1=S", "Potency": "active: 2.51 µM"}, {"smiles": "C#CCOCCOCCOCCNc1nc(N2CCN(C(=O)[C@H](CCCCN)n3cc([C@@H](N)C(C)CC)nn3)CC2)nc(N2CCN(C(=O)[C@H](CCCCN)n3cc([C@@H](N)CO)nn3)CC2)n1", "note": "(stereo not given in full)", "activity, negative = inhibition": "inconclusive: -90.7% [inhibitor]"}, {"smiles": "CC(=O)c1ccc(N2CCN(C(=O)CCS(=O)(=O)c3ccc(C)cc3)CC2)cc1", "activity, negative = inhibition": "inactive: -31.8% [at 12.7 µM]"}, {"smiles": "COc1ccc(NS(=O)(=O)c2ccc(N3CCCCS3(=O)=O)cc2)cc1Cl", "Potency": "inactive"}, {"smiles": "COc1ccc(-c2noc(CCC(=O)N(C)c3cc(Cl)ccc3OC)n2)cc1", "Potency": "inactive"}, {"smiles": "Cc1ccc(C)c(NC(=O)Cc2ccc(S(=O)(=O)N3CCCCC3)s2)c1", "Potency": "inconclusive: 89.1 µM [inhibitor, partial curve, poor fit]"}, {"smiles": "CCOC(=O)C1=C(C)N(C)C(=S)NC1c1ccccc1Cl", "note": "(stereo not given)", "activity, negative = inhibition": "inactive: 46.9% [at 12.7 µM]"}, {"smiles": "COc1ccccc1C(=O)Nc1ccc(-c2nnn(CC(=O)N3CCN(C(=O)c4ccco4)CC3)n2)cc1", "Potency": "inconclusive: 50.1 µM [inhibitor, partial curve, poor fit]"}, {"smiles": "COc1ccc(CS(=O)/C(Cl)=C(/Cl)C(=O)Nc2ccc(OC)nc2)cc1", "note": "(stereo not given)", "Potency": "active: 11.2 µM"}, {"smiles": "Cc1ccc(NC2CCCN(C(=O)c3cccs3)C2)cc1C", "note": "(stereo not given)", "Potency": "active: 35.5 µM"}, {"smiles": "O=S(=O)(c1cccc2nsnc12)N1CCc2ccccc21", "Potency": "inconclusive: 39.8 µM [inhibitor, single point]"}, {"smiles": "COC(=O)c1ccc(Nc2nc(N3CCOCC3)nc(N3CCOCC3)n2)cc1", "Potency": "inconclusive: 89.1 µM [inhibitor, single point]"}, {"smiles": "CCC1(C(=O)OC)NC(c2ccco2)C2C(=O)N(c3ccc(C)cc3)C(=O)C21", "note": "(stereo not given)", "Potency": "inconclusive: 70.8 µM [inhibitor, partial curve]"}, {"smiles": "Cc1nc2ccccc2n1CCOc1ccc(F)cc1", "Potency": "inconclusive: 89.1 µM [inhibitor, single point]"}, {"smiles": "COc1ccc(NC(=O)CN2CCN(c3ccccc3F)CC2)cc1", "Potency": "inconclusive: 50.1 µM [inhibitor, partial curve, poor fit]"}, {"smiles": "CCn1ncc(CN2CCN(Cc3cccc(OC)c3)C(CCO)C2)c1C", "note": "(stereo not given)", "Potency": "inconclusive: 79.4 µM [inhibitor, partial curve, poor fit]"}, {"smiles": "O=C1CCCC2=C1C(c1cn(-c3ccccc3)nc1-c1cccs1)c1c([nH]c(=O)[nH]c1=O)N2", "note": "(stereo not given)", "Potency": "inconclusive: 89.1 µM [inhibitor, single point]"}, {"smiles": "O=C(NNC(=O)c1cc2cc(Br)ccc2oc1=O)c1ccc(O)cc1", "Potency": "inconclusive: 50.1 µM [inhibitor, partial curve, poor fit]"}, {"smiles": "COc1cc(NC(=O)c2cccc(Cl)c2Cl)ccc1NC(=O)c1cc2ccccc2o1", "Potency": "inactive"}, {"smiles": "CCN(C(=O)CSc1nnc(COc2cccc(C)c2)o1)c1nc(C)cs1", "Potency": "inactive"}, {"smiles": "COc1ccc(-c2nc3ccccn3c2NCc2ccc3c(c2)OCO3)cc1", "Potency": "inconclusive: 28.2 µM [inhibitor, single point]"}, {"smiles": "O=C(c1ccco1)N1CCC2(CC1)CCN(c1cccc(-c3ccccc3)c1)CC2", "activity, negative = inhibition": "inactive: -19.3% [at 12.7 µM]"}, {"smiles": "O=C(O)CN1C(=O)/C(=C2\\SC(=S)N(C(Cc3ccccc3)C(=O)O)C2=O)c2ccccc21", "note": "(stereo not given)", "Potency": "active: 50.1 µM"}, {"smiles": "CCOc1ccccc1CN1CCNC(=O)C1CC(=O)N(C)Cc1nonc1C", "note": "(stereo not given)", "Potency": "inactive"}, {"smiles": "COc1cc(/C=C2\\SC(=S)N(NC(=O)c3cccc(O)c3)C2=O)ccc1O", "Potency": "active: 35.5 µM"}, {"smiles": "O=C1CC(c2ccc(F)cc2)SC(N(c2ccccc2)c2ccccc2)=N1", "note": "(stereo not given)", "Potency": "inconclusive: 0.398 µM [inhibitor, partial curve, poor fit]"}, {"smiles": "O=C(NCCC(=O)N(CCc1ccccc1)Cc1ccccc1)c1ccc(Br)cc1", "Potency": "inactive"}, {"smiles": "Cc1ccc(-c2nn(-c3ccc(F)cc3)cc2C(=O)N2CCN(C3CCS(=O)(=O)C3)CC2)cc1", "note": "(stereo not given)", "activity, negative = inhibition": "inactive: 1.24% [at 12.7 µM]"}, {"smiles": "Cc1c(O)ccc(C(=O)CN2CCN(c3ccccc3F)CC2)c1O", "Potency": "inconclusive: 89.1 µM [inhibitor, single point]"}, {"smiles": "CC(C)(C)c1ccc(S(=O)(=O)/C=C/C#N)cc1", "Potency": "active: 1.12 µM and active: 947 nM"}, {"smiles": "Cn1c(SCC(=O)NNC(=O)c2ccccc2)nnc1C1CC1", "Potency": "inconclusive: 89.1 µM [inhibitor, single point]"}, {"smiles": "O=C(CCN1c2ccccc2Sc2ccccc21)OCC(=O)N1CCN(C(=O)c2ccco2)CC1", "activity, negative = inhibition": "inconclusive: -55.7% [inhibitor]"}, {"smiles": "COC(=O)c1cn[nH]c1NC(=S)Nc1ccc(Cl)c(Cl)c1", "Potency": "inactive"}, {"smiles": "CC(C)c1ccccc1OCC(=O)Nc1cc(S(=O)(=O)N2CCOCC2)ccc1N1CCCC1", "Potency": "active: 28.2 µM"}, {"smiles": "O=S(=O)(Nc1nc(-c2ccccc2)cs1)c1cccc(C(F)(F)F)c1", "Potency": "inconclusive: 79.4 µM [inhibitor, single point]"}, {"smiles": "COc1ccc(N2CCN(S(=O)(=O)c3ccc(F)c(C(=O)Nc4ccccc4Cl)c3)CC2)cc1", "Potency": "inactive"}, {"smiles": "Cc1cc(C(=O)O)ccc1NCc1ccncc1", "Potency": "inconclusive: 89.1 µM [inhibitor, single point]"}, {"smiles": "CN(C)c1ccc(Nc2ncnc3ccc(Br)cc23)cc1", "Potency": "active: 10 µM"}, {"smiles": "N#CCC(=O)NN", "activity, negative = inhibition": "inactive: 17.3% [at 12.7 µM]"}, {"smiles": "CCCOc1cccc(C2C(C(=O)c3ccco3)=C(O)C(=O)N2c2nnc(C)s2)c1", "note": "(stereo not given)", "Potency": "inconclusive: 89.1 µM [inhibitor, single point]"}, {"smiles": "CSc1nnc(-c2ccco2)c(-c2ccco2)n1", "Potency": "inconclusive: 1.58 µM [inhibitor, full curve, poor fit]"}, {"smiles": "COC(=O)c1ccc(OC(=O)c2ccccc2F)cc1", "Potency": "inactive"}, {"smiles": "Oc1c(Br)cc(/C=N/Nc2ccc(Cl)nn2)cc1Br", "Potency": "active: 39.8 µM"}, {"smiles": "Cc1ccc(NNC(N)=S)cc1Cl", "activity, negative = inhibition": "inconclusive: -102% [inhibitor]"}, {"smiles": "Nc1nnnn1CC(=O)N/N=C/c1ccc(-c2cccc(Cl)c2)o1", "Potency": "inconclusive: 39.8 µM [inhibitor, partial curve, poor fit]"}, {"smiles": "CC(OC(=O)c1ccc([N+](=O)[O-])s1)C(=O)NC1CCCCC1C", "note": "(stereo not given)", "activity, negative = inhibition": "inactive: 13.5% [at 12.7 µM]"}, {"smiles": "Cc1occc1C(=O)NCc1cccc(CNC(=O)c2ccoc2C)c1", "Potency": "active: 22.4 µM"}, {"smiles": "Cc1cc(C(=O)CSc2nc3ccccc3o2)c(C)n1C1CC1", "Potency": "inconclusive: 44.7 µM [inhibitor, partial curve, poor fit]"}, {"smiles": "COc1ccc(C(=O)Nc2nncs2)cc1S(=O)(=O)N1CC(c2ccccc2)CC1=O", "note": "(stereo not given)", "Potency": "active: 50.1 µM"}, {"smiles": "CCOc1ccc(NCc2cccn2-c2nnc(N3CCC(C(=O)NCc4ccccc4Cl)CC3)s2)cc1", "Potency": "inconclusive: 10 µM [inhibitor, partial curve, poor fit]"}, {"smiles": "O=C(c1ccc(F)cc1)N1CCc2c([nH]c3ccccc23)C1c1ccc(Cl)cc1", "note": "(stereo not given)", "Potency": "inconclusive: 44.7 µM [inhibitor, partial curve, poor fit]"}, {"smiles": "CCc1ccc(OCCSc2nc3ccccc3n2CC(=O)N2CCCCC2)cc1", "Potency": "inconclusive: 25.1 µM [inhibitor, partial curve, poor fit]"}, {"smiles": "COc1cccc(OC)c1C(=O)Nc1sc2c(c1C(N)=O)CCN(Cc1ccccc1)C2", "Potency": "active: 79.4 µM"}, {"smiles": "COc1ccc2cc(C(=O)N3CCN(c4ccc(F)cc4)CC3)[nH]c2c1", "Potency": "active: 50.1 µM"}, {"smiles": "COc1cc(/C=C(\\C#N)c2nc3ccc(C)cc3[nH]2)ccc1OCc1ccc(C)cc1", "Potency": "inconclusive: 8.91 µM [inhibitor, partial curve, poor fit]"}, {"smiles": "CCCCNC(=O)c1cccc(NC(=O)c2nsc3ccccc23)c1", "Potency": "inconclusive: 39.8 µM [inhibitor, single point]"}, {"smiles": "Brc1ccc(CNc2nc3ccccc3n2CCN2CCCCC2)cc1", "Potency": "active: 44.7 µM"}, {"smiles": "Cc1c(C(=O)NCc2ccc3c(c2)cc(C)n3C)cccc1[N+](=O)[O-]", "Potency": "inconclusive: 89.1 µM [inhibitor, single point]"}]}]}
